# Assay results reported in PubChem BioAssay AID504832 (National Center for Advancing Translational Sciences (NCATS), 2011).
# Screen size: about 310,000 compounds; about 18,000 (5.8%) were called active. This list was built around the results that the source calls inconclusive (neither active nor inactive); the mix of calls is not that of the screen. Calls follow the shape of the dose curve; as a rule, active = well fitted inhibition curve with a large enough effect; inconclusive = small, poorly fitted or top-dose-only effect, or another doubt; inactive = no such curve, though single readings can be large or run the other way. No potency is given beside an inconclusive call; the fits are too rough.
# Test: Primary qHTS for delayed death inhibitors of the malarial parasite plastid, 48 hour incubation
# Conditions: P. falciparum luciferase growth in erythrocytes; series mostly up to 28.7 µM
# Summary of the method: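 Luciferase-expressing P. falciparum in infected erythrocytes (2% hematocrit, 0.1% parasitemia final) in RPMI 1640/0.5% Albumax were exposed to compound for 48 hours at 37 C, 5% CO2; growth read as luminescence.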
# Potency is read from the fitted curve at half-maximal effect; tags tell the direction and shape of the fitted curve.
row,Structure (SMILES),Potency
1,O=C1CSC(c2ccccc2)N1c1nc(-c2ccc(Cl)cc2Cl)cs1 (centres undefined),"inconclusive [inhibitor, single point]"
2,CC(C)(C)Cc1nnc(NC(=O)CCc2ccccc2)s1,inactive
3,C=CCN1C(=O)[C@@H]2Cc3c([nH]c4ccccc34)C(c3cc(OC)c(OC)c(OC)c3)N2C1=S (some centres undefined),active: 8.28 µM
4,CN1CCC(N(C)S(=O)(=O)c2ccc(NC(=O)COc3ccc(F)cc3Cl)cc2)CC1,"inconclusive [inhibitor, single point]"
5,Cc1cc(-n2c(C)cc(C(=O)CSc3nnc4sc5ccccc5n34)c2C)no1,inactive
6,CCOc1ccc(N2C(=O)CC(SC(=NC)Nc3ccc(F)cc3)C2=O)cc1 (centres undefined),"inconclusive [inhibitor, single point]"
7,C[C@@H]1CC=C[C@H]2[C@H]1C(=O)N(Cc1ccccc1)[C@H]2c1ccc(/C=C/c2ccccc2)cc1F,active: 10.4 µM
8,OCCNC(=S)NCCc1ccccc1,inactive
9,COc1ccc(SC[C@H](Cc2ccccc2)N2CC[C@@H](NC(=O)OCc3ccccc3)CCC2=O)cc1,active: 7.38 µM
10,O=c1[nH]c(=O)n(Cc2ccccc2)c(O)c1C=NCCN1CCNCC1,inactive
11,CCN1/C(=C/c2ccc3cccc(C)c3[n+]2CC)Sc2ccccc21,"inconclusive [inhibitor, full curve, poor fit]"
12,NCCNC(=O)Cn1c(=O)c2c3c(sc2n(Cc2ccccc2)c1=O)CCCC3,"inconclusive [inhibitor, partial curve, poor fit]"
13,OCCCc1nc2n(n1)C(c1cccs1)C=C(c1ccc(Br)cc1)N2 (centres undefined),"inconclusive [inhibitor, partial curve]"
14,COc1cccc(CN(C)C(=O)c2ccc(NC(=O)CC3SC(N4CCCC4)=NC3=O)cc2)c1OC (centres undefined),"inconclusive [inhibitor, partial curve]"
15,COc1ccc(C(O)(C(C)C)C(CN2CCOCC2)c2ccccc2)cc1 (centres undefined),"inconclusive [inhibitor, single point]"
16,CCCCCCNC(=O)c1cn(CC)c2cc(N3CCN(C)CC3)c(F)cc2c1=O,active: 4.65 µM
17,CCCCCn1cnc2c(=S)nc(N)[nH]c21,"inconclusive [inhibitor, single point]"
18,CN(C)c1ccc(C=NCCC2(c3ccccc3)CCOC(C)(C)C2)cc1 (centres undefined),"inconclusive [inhibitor, single point]"
19,C=CCc1ccc(OCCOCCOc2ccccc2[N+](=O)[O-])c(OC)c1,"inconclusive [inhibitor, single point]"
20,Cc1cccc(C)c1NC(=O)CN(C)C(=O)Cc1cccc(C(F)(F)F)c1,"inconclusive [inhibitor, single point]"
21,CC1(C)N=C(N)NC(Nc2ccc(Br)cc2)=N1,active: 5.22 µM
22,COc1ccc(CCNC(=O)Cn2cnc3c(nnn3Cc3ccccc3F)c2=O)cc1OC,"inconclusive [inhibitor, partial curve, poor fit]"

row,Structure (SMILES),Potency
1,CCn1c(Nc2ccccc2Cl)nc2ccccc21,"inconclusive [inhibitor, single point]"
2,CN(Cc1ccccc1)C(=O)CCC1CCN(C(=O)CC2=CCCCC2)CC1,"inconclusive [inhibitor, single point]"
3,O=C(N/N=C/c1ccc(O)cc1O)C(=O)N/N=C/c1ccc(O)cc1O,"inconclusive [inhibitor, partial curve, poor fit]"
4,CC1(C)Cc2cccc(Oc3ccc(S(=O)(=O)N4CCCCC4)cn3)c2O1,active: 13.1 µM
5,COc1cc(/C=C2\SC(c3ccc(C)cc3)=NC2=O)ccc1O,"inconclusive [inhibitor, single point]"
6,CCCCOC(=O)n1c(=O)oc2cc(S(=O)(=O)N3CCCCC3)ccc21,"inconclusive [inhibitor, partial curve]"
7,O=C(COC(=O)CCC(=O)c1ccccc1)Nc1nnc(-c2ccccc2)o1,"inconclusive [inhibitor, single point]"
8,COc1ccccc1Cn1c(=S)[nH]c2cc(C(=O)NCCCN3CCOCC3)ccc2c1=O,"inconclusive [inhibitor, partial curve]"
9,CC(C(=O)NCc1ccco1)n1cc(C(=O)c2ccco2)c2ccccc21 (centres undefined),"inconclusive [inhibitor, single point]"
10,Cc1ccc2[nH]c3c(c2c1)CN(C(=O)CN1CCCCC1)CC3,"inconclusive [inhibitor, single point]"
11,CCNC(=S)N/N=C/c1cn(Cc2ccccc2F)c2ccccc12,"inconclusive [inhibitor, single point]"
12,CCCCn1c(N)c(N(C(=O)CSc2nnnn2-c2ccccc2C)C2CCCC2)c(=O)[nH]c1=O,"inconclusive [inhibitor, single point]"
13,CCOC(=O)C1=C(CS(=O)(=O)c2ccccc2)NC(=O)NC1c1cccc(OC)c1 (centres undefined),"inconclusive [inhibitor, full curve]"
14,COc1ccc(OCC(=O)N/N=C2\CCCCc3ccccc32)cc1,"inconclusive [inhibitor, single point]"
15,CCOC(=O)[C@@H]1[C@H]2COc3ccc(Br)cc3[C@H]2N2C(=O)N(c3ccc(Br)cc3)C(=O)[C@]12C,"inconclusive [inhibitor, single point]"
16,COc1ccc(-c2[nH]ncc2CN2CCN(Cc3cccs3)CC2)cc1F,"inconclusive [inhibitor, partial curve, poor fit]"
17,COc1ccccc1C(=O)Nc1ccc2c(c1)CN(Cc1cnc(C)s1)CC2,"inconclusive [inhibitor, partial curve, poor fit]"
18,Cc1ccc(-n2cc(CNC(C)c3cnn(C)c3C)c(-c3ccc(F)cc3)n2)cc1 (centres undefined),"inconclusive [inhibitor, full curve]"
19,COC(=O)c1ccccc1C(=O)N(Cc1cccnc1)CC1CCCN(C2CCCCC2)C1 (centres undefined),"inconclusive [inhibitor, full curve]"
20,CC(C)c1cc(C(=O)Nc2cc(Cl)ccc2O)no1,"inconclusive [inhibitor, single point]"
21,COC(=O)/C(C#N)=C/c1ccc(N2CCOCC2)c([N+](=O)[O-])c1,"inconclusive [inhibitor, single point]"
22,Cc1ccc(CCNC(=O)C2CCCN(C(=O)c3cc4sccc4n3C)C2)cc1 (centres undefined),"inconclusive [inhibitor, single point]"

row,Structure (SMILES),Potency
1,Cc1ccc(CN2CC(C(=O)NNC(=O)Cn3ccc(C(F)(F)F)n3)CC2=O)cc1 (centres undefined),"inconclusive [inhibitor, single point]"
2,Cc1ccc(NC(=O)C2CCN(C(=O)NC3CCCCC3)CC2)cc1,"inconclusive [inhibitor, partial curve, poor fit]"
3,O=C(CN1C(=O)C2CC=CCC2C1=O)Nc1ccc(S(=O)(=O)NC2=NCCCCC2)cc1 (centres undefined),"inconclusive [inhibitor, partial curve, poor fit]"
4,COc1ccccc1CNS(=O)(=O)c1ccc2c(c1)CC(C)N2C(=O)C1CC1 (centres undefined),"inconclusive [inhibitor, single point]"
5,CC(C)(C)C(=O)CSc1nc2c(c(-c3cccs3)c1C#N)CCC2,"inconclusive [inhibitor, single point]"
6,COc1ccc(C(=O)/C=C/c2ccc(O)cc2)cc1,inactive
7,CSCCC(NS(=O)(=O)c1cccc(C(F)(F)F)c1)C(=O)Nc1ccccc1N1CCCC1 (centres undefined),"inconclusive [inhibitor, partial curve]"
8,Cc1ccc(C)c(C(=O)CSc2nnnn2-c2cccnc2)c1,inactive
9,COc1ccccc1-c1csc2ncnc(Sc3nnnn3C)c12,"inconclusive [inhibitor, partial curve]"
10,O=C(COc1ccc(Cl)cc1Cl)NC1CCSC1=O (centres undefined),inactive
11,CC(C)CC1NC(=O)N(CC(=O)c2ccc3c(c2)OCCO3)C1=O (centres undefined),inactive
12,COc1ccc(Nc2ncc(C(=O)N3CCN(Cc4ccccc4)CC3)c3ccccc23)cc1,"inconclusive [inhibitor, partial curve, poor fit]"
13,Cc1nn(-c2ccccc2)c2c1C(c1cccc([N+](=O)[O-])c1)N(c1ccccc1)C(=O)N2 (centres undefined),"inconclusive [inhibitor, single point]"
14,CCCCn1cc(C(=O)c2cc(Br)ccc2O)cc(C#N)c1=O,active: 1.65 µM
15,O=C(CCCCn1c(=S)[nH]c2ccsc2c1=O)NCc1ccco1,"inconclusive [inhibitor, single point]"
16,COc1ccc(CC(=O)Nc2ccccc2C(=O)NCCc2ccccc2)cc1,"inconclusive [inhibitor, full curve, poor fit]"
17,C#CCOCCOCCOCCNc1nc(N2CCN(C(=O)CCCCCCCCCCNC(=O)[C@H](CO)n3cc(CCCSC)nn3)CC2)nc(N2CCN(C(=O)CCCCCCCCCCNC(=O)[C@H](CCCN=C(N)N)n3cc(C[C@@H](C)CC)nn3)CC2)n1,active: 1.47 µM
18,CCN(CC)c1ccc(NC(=O)c2ccccc2Br)cc1S(=O)(=O)Nc1ccccc1OC,active: 14.7 µM
19,COc1cccc(C(=O)C2CCCN(C(=O)CCc3scnc3C)C2)c1 (centres undefined),inactive
20,COc1ccc(CN2CCN(Cc3nc4ccccc4s3)CC2CCO)c(C)c1C (centres undefined),"inconclusive [inhibitor, partial curve, poor fit]"
